The supplement of paper PMC11417369
± gives the standard deviation of the averaged measurements. This is one part of the list.

test system: PfAP2-EXP AP2 domain (GST-tagged); assay: gcPBM binding intensity (ln(normalized median fluorescence intensity)); higher = stronger DNA binding
Procedure, shortened: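 An Agilent 4 × 180k array carrying primer-extended double-stranded 36-bp intergenic genomic probes and negative controls received GST-tagged P. falciparum DNA-binding domains expressed in E. coli, about 25 μg on average, for 1 h. The binding buffer contained 1× PBS, 1% milk, 0.2 mg/ml BSA, 0.5% salmon testes DNA and 0.03% Triton X-100. Binding intensity is the top Masliner-normalised natural-log median intensity across replicate spots of either probe orientation, read after Alexa488 anti-GST antibody staining and a 488 nm scan.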

Row | Sequence | gcPBM binding intensity (ln)
1 | TTCCTTCATTGGAAAAGTACACAATATTGTCGTTTA [XGTACX_site8057] | 8.6 ± 0.45
2 | GCACAAATCATCAAATGTACAGAAAATGCTGTCAAT [XGTACX_site5037] | 8.61 ± 0.42
3 | TTTTTTTTTTTTTTTTGTACACATAGTAAAAATTAA [XGTACX_site2410] | 8.3 ± 0.43
4 | TTTTTTTTTAAGCAAAGGAAATCAAAATAAAAATAT [CACACA_negctrl_site719] | 8.53 ± 0.46
5 | TGTTATTAAAACGTGACACACAATATATATATATAT [CACACA_site3539] | 9.98 ± 0.28
6 | TTATAAATTATATATATGACCAATAATTGTGAGCAT [CACACA_negctrl_site725] | 8.63 ± 0.28
7 | TATATATATATATGTTGTACTTTTAATTTAAATGTA [XGTACX_site4239] | 10.2 ± 0.23
8 | TTTTTTTTTTATTCTACACACATATGTTTTTATATG [CACACA_site182] | 8.7 ± 0.49
9 | TGTCGACATGTAGGTAGTACTATTAAAAATAATGAT [XGTACX_site3849] | 8.8 ± 0.42
10 | ATAGAAGGACATATAACACACATATATTATAAGTAT [CACACA_site5461] | 8.56 ± 0.42
11 | AAATATATATATATAATACACACTAAAGTAACATAA [CACACA_site2870] | 8.79 ± 0.3
12 | GGATGATTAAGGGGGACACACGTTTATATATTTATA [CACACA_site4342] | 9.82 ± 0.45
13 | TAAATATAAACACAAACACACACATATATATATATA [CACACA_site7978] | 10.1 ± 0.42
14 | AATAAATTAATAAGGTGTACATAAATAATTTATATA [XGTACX_site8278] | 8.7 ± 0.39
15 | AAATAGGGAATTTATGCACACAGTTAAGGGGGAAAA [CACACA_site2071] | 9.19 ± 0.3
16 | ATATATTATTATATATGTACTTATTTATAAATGATT [XGTACX_site7597] | 8.3 ± 0.23
17 | CATACTCTACATAGATGTACTCATTTAAAAAAAAAA [XGTACX_site6945] | 8.36 ± 0.17
18 | ATTTTTTTTTTTTTTTTTTTTTTTTTCTCTCTCACT [CACACA_negctrl_site1046] | 8.21 ± 0.46
19 | ATTCAAAAGGTTTAATGTACGTGATGTTTCACAAAT [XGTACX_site784] | 8.38 ± 0.33
20 | TTAACAAATGGACACACACACACACCCAAAAAAAAA [CACACA_site4443] | 8.68 ± 0.44
21 | TTATATTAAACAAACACACACATATATATATATATA [CACACA_site2382] | 10.1 ± 0.47
22 | TATATATATATATATTGTACATATTGTATATATTGT [XGTACX_site3212] | 9.98 ± 0.21
23 | TGTTACATATTATAAATACATTAACTATTATATGTA [CACACA_negctrl_site1735] | 8.26 ± 0.49

Row | Sequence | gcPBM binding intensity (ln)
24 | TATATATATATTTATACACACATTAGTGTATCCATG [CACACA_site5609] | 9.58 ± 0.28
25 | TTTATAAAAAATTTTTTTTTTTTTTTTTAAATATAT [CACACA_negctrl_site146] | 8.19 ± 0.4
26 | TTGGCATACAGACACACACACACACGCCCACATATA [CACACA_site6425] | 8.67 ± 0.57
27 | TTTTTTTTTTGTAGTTGTACGAACTAGCTATTTATG [XGTACX_site692] | 8.45 ± 0.44
28 | ATATATATATATATATGTACATATATATATTTTTTA [XGTACX_site5987] | 9.99 ± 0.54
29 | CAAAAAAACAAACACACACACACACCCATATATATA [CACACA_site3653] | 8.62 ± 0.28
30 | ATCAATACACATATATGTACATATAATAATTATCTT [XGTACX_site662] | 9.05 ± 0.46
31 | TTATTTTTTCAAGAATGTACTTACGAATTGTCGTAT [XGTACX_site1363] | 8.23 ± 0.4
32 | TAATTACCATATGGTACACACATATATATATGTATA [CACACA_site3487] | 8.87 ± 0.44
33 | ATTTATAATCTGTATAGTACACATATATACATGGTT [XGTACX_site2714] | 8.45 ± 0.3
34 | CTAAAACAATAAATCACACATACATAGGATAATATA [CACACA_site4247] | 8.73 ± 0.34
35 | TCTTAAATATACAGTTGTACTAAACAAAAAAAAAAA [XGTACX_site2639] | 8.5 ± 0.38
36 | TATAAAAAATGATAAAGTACTTTATACACACAAATA [XGTACX_site8486] | 8.89 ± 0.32
37 | AAAATATACACACATATGTATATAATATTATATGTA [GTGCAC_negctrl_site496] | 8.46 ± 0.29
38 | ATTTATCTATAATATACACACATATAACAGACATAT [CACACA_site6469] | 8.52 ± 0.33
39 | TACACAAAATTTAAATGTACATTAAATATATGATGT [XGTACX_site2140] | 8.55 ± 0.33
40 | AAACATCATAAATATACACACATATATATATATATA [CACACA_site620] | 10 ± 0.44
41 | TGATAGCTAGCTATATGTACATATATATATATATAT [XGTACX_site393] | 10.1 ± 0.34
42 | CTTTCGGTTGGAGAGGTGCGCTTCTCCTTTATAATA | 8.81 ± 0.22
43 | CGAAACCATATGTACACACACATATATAAATATGTA [CACACA_site7082] | 8.51 ± 0.28
44 | AAAACGTATCACAAAAGTACAGATAGTTATAATATA [XGTACX_site185] | 8.63 ± 0.31
45 | TTTATATTTCTCTTTAGTACATATTATATTCTTTTA [XGTACX_site1618] | 8.63 ± 0.43
46 | AATGAAAATAAATTAACACACAATTTTAATATTGTT [CACACA_site1306] | 8.08 ± 0.35

Row | Sequence | gcPBM binding intensity (ln)
47 | GTATACTTAACATTCACACATATATATATATATAAA [CACACA_site4596] | 8.6 ± 0.42
48 | ATATATATATATATATGTACTTATAATTCTTCAATT [XGTACX_site5627] | 9.96 ± 0.52
49 | AATTATTTACCTTCTTTGAAAGAACAAATGATACAA [CACACA_negctrl_site1315] | 8.41 ± 0.5
50 | ATATATCAACTCATATTATTTTCTTTTATTATTTAT [CACACA_negctrl_site276] | 8.64 ± 0.68
51 | TTTTTGAAATAATGAAACAGCAAAAAAACAAAAATA [CACACA_negctrl_site221] | 8.9 ± 0.64
52 | AAAAAAAACAGACACACACACAAATATATAAAAATA [CACACA_site1172] | 8.67 ± 0.65
53 | TATTAAAAGAAAATAACACACACAAAAAAAAAAAAA [CACACA_site8661] | 8.34 ± 0.64
54 | AAAATAAGCGTGAAACGTACATATTACATTATTATA [XGTACX_site8914] | 8.35 ± 0.38
55 | ATAATATATATATAGTGTACATTTGAATATATTTGA [XGTACX_site583] | 8.44 ± 0.42
56 | AAAATAAAAACAAAATCACACATTCCAGTTTTTTTT [CACACA_site5356] | 8.3 ± 0.38
57 | TTTTAAAATATCAACACACTCATTATTTTCTATATT [CACACA_site4740] | 8.4 ± 0.42
58 | TATATACATGTGAGAGTGCATATAGACATAAAAAAT | 9.09 ± 0.26
59 | TCATTCTATCTGTTCACACATACACAAAAAAAAAAA [CACACA_site5141] | 8.64 ± 0.52
60 | AAGGTCATTTTATATTGTACATGAAATTGTTATGTA [XGTACX_site187] | 8.37 ± 0.4
61 | ATATACAGATAAATGTGTACTTAAATCTATTATATT [XGTACX_site2632] | 8.18 ± 0.28
62 | AATAATGAATACACATGTACAAAAATTTTTCTTACT [XGTACX_site1962] | 8.61 ± 0.33
63 | TATTACAAATATGGCACACATATATATATATATATT [CACACA_site3268] | 8.49 ± 0.26
64 | TCAATTTGGAACGGTATGCACTAATTTTATATTTTT | 8.41 ± 0.27
65 | ATATATTTTGTATGTAGTACAATTTTATAATCATAT [XGTACX_site8373] | 8.12 ± 0.12
66 | ACAAAGACAATTTTGTTATATATAAAAAAAAAAAAT [CACACA_negctrl_site253] | 8.51 ± 0.57
67 | TATATAAAACCTTATTGTACTATTAGACTATGCTTA [XGTACX_site6026] | 8.21 ± 0.39
68 | CAAATATCTATTTAGTGTACTAATATATTCAATAAT [XGTACX_site2345] | 8.41 ± 0.18
69 | TACAAATATATATGCACACACATATCTGTATATGTG [CACACA_site5663] | 8.59 ± 0.24

Row | Sequence | gcPBM binding intensity (ln)
70 | ATAGCATATATTTTTTGTACATATGTTATATATATA [XGTACX_site2184] | 8.96 ± 0.071
71 | ATTAATTTTCCATTCACACATATATATATATATATA [CACACA_site6065] | 10.1 ± 0.55
72 | ATGTAGATATATATCTGTACGTATATGTAAATATTA [XGTACX_site1516] | 8.72 ± 0.35
73 | ACACATTATAACAAGGTGCAATTTTTATACACATGT [GTGCAC_site9866] | 8.61 ± 0.15
74 | AATTCTTTTTATATATTAAATATTATTAATAAGTCA [CACACA_negctrl_site1488] | 8.21 ± 0.4
75 | GCTATAATAAAATTTAAACACACGTAATATAATATA [CACACA_site2592] | 8.59 ± 0.49
76 | AAAATTTCATAAAGACGTACTATAAAAATAAAATTA [XGTACX_site4182] | 8.59 ± 0.4
77 | GAAAAAAAAAAAAATACACACAAATTGGTATATAAC [CACACA_site6315] | 8.38 ± 0.58
78 | CACTAATAGTGGATTACACACATATAGATGTATATA [CACACA_site7234] | 8.34 ± 0.35
79 | TATAAAAAATATCCTTTTTTTATACATCAATATATA [TGCATGCA_negctrl_site291] | 8.02 ± 0.35
80 | GTATATTTCTTTAAATGTACACATTTTTTTAAAGAG [XGTACX_site1225] | 8.53 ± 0.35
81 | AATTGTATAAATGGAATAATGACTATGATTATACAT [GTGCAC_negctrl_site188] | 8.63 ± 0.39
82 | AAAAATTCTTGGCGCACACACTTTAAAAGTTAAAAA [CACACA_site6430] | 8.79 ± 0.4
83 | ACCATATAAAGTTAGGTGCATTTGTATGTATCTTAC | 8.55 ± 0.26
84 | TTATTTTGATCTGGTTGTACATATAATATATAGTGG [XGTACX_site357] | 8.91 ± 0.48
85 | TCTTGTTCGCCCTATTGTACAAACATATATTGTGAT [XGTACX_site2884] | 9.16 ± 0.42
86 | ATTAATTTGATTTTAATAAGAATATTTGTGGGGAAT [GTGCAC_negctrl_site198] | 8.62 ± 0.79
87 | TGAATAATAAAAAATACACACACATATATATATATT [CACACA_site9146] | 8.45 ± 0.47
88 | ATATTGATTTGTGGCACACATATAATATATTCCTAT [CACACA_site3046] | 8.51 ± 0.21
89 | TTTTCAATATATATATGCTGAATTTATAATTTGTAT [CACACA_negctrl_site1774] | 8.26 ± 0.35
